Data: PubChem BioAssay AID504832 (National Center for Advancing Translational Sciences (NCATS), 2011)
“And” between values parts separate entries of the source, which are not always exact repeats. Identical values can stand only once. The campaign covered roughly 310,000 compounds. About 18,000 (5.8%) were called active. The shares of active, inactive and inconclusive entries below differ from those in the screen. Calls come from the whole dose curve; as a rule, active = well fitted inhibition curve with a large enough effect; inconclusive = small, poorly fitted or top-dose-only effect, or another doubt; inactive = no such curve, though single readings can be large or run the other way. Where the call is inconclusive, the potency comes from a doubtful curve fit.

assay: Primary qHTS for delayed death inhibitors of the malarial parasite plastid, 48 hour incubation; settings: P. falciparum luciferase growth in erythrocytes; series mostly up to 28.7 µM
In short: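 Luciferase-expressing parasites in RBCs, 2% Hct / 0.1% parasitemia final; RPMI 1640 + 0.5% Albumax; 37 C, 5% CO2, one generation; luminescence read-out, lower signal = inhibition.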
Potency is the fitted concentration of half-maximal effect; tags give direction and shape of the fitted curve.

Structure (SMILES)	Potency
CC(C)=C1Cc2ccccc2C1=O	inconclusive: 0.0294 µM [inhibitor, full curve, poor fit]
O=C(Cc1ccc(S(=O)(=O)N2CCOCC2)s1)N1CCN(S(=O)(=O)c2cccc([N+](=O)[O-])c2)CC1	inconclusive: 18.5 µM [inhibitor, single point]
CC1=C(C(=O)NC2CCC(C)CC2)C2(CCC(C)CC2)OC1=O (configuration not stated)	inconclusive: 9.28 µM [inhibitor, single point]
Cc1cc(C(C)(C)C)cc(C)c1CC1=NCCN1	inconclusive: 11.7 µM [inhibitor, single point]
CN(CC(=O)Nc1cccc(F)c1)C(=O)Cn1cnc2c1c(=O)n(C)c(=O)n2C	inconclusive: 18.5 µM [inhibitor, single point]
COc1cccc(NC(=O)NC2CCN(CC(=O)Nc3ccccc3[N+](=O)[O-])CC2)c1	inconclusive: 5.22 µM [inhibitor, partial curve, poor fit]
C=CCS/C(N)=N\N=C\c1c(O)ccc2ccccc12	inactive
COc1ccccc1NC(=O)c1c(C)nc2ccccc2c1C(=O)O	inactive
Cc1ccccc1N(CC(=O)NCCc1ccccc1)C(=O)c1ccc(N2CCCC2)nc1	active: 10.4 µM
O=C(c1ccc(F)cc1)C1CCN(C(=S)Nc2ccc(F)cc2)CC1	inactive
CC(C)NC(=O)c1cccc(NC(=O)CC2SC(N3CCCCC3)=NC2=O)c1 (configuration not stated)	inconclusive: 18.5 µM [inhibitor, single point]
CCNc1oc(-c2cccc3ccccc23)nc1C#N	inactive
CCN(CC)CCOCCOC(=O)C1(c2ccccc2)CCCC1	active: 3.01 µM
COc1ccc(NS(=O)(=O)c2csc(C(=O)N3CCCC3)c2)cc1	inconclusive: 1.65 µM [inhibitor, full curve]
COc1ccc(C(C(=O)NC2CCCC2)N(CC2CCCO2)C(=O)Cn2nnc(-c3ccc(C)o3)n2)cc1 (configuration not stated)	inconclusive: 20.8 µM [inhibitor, single point]
Cc1cc(-n2c(C)cc(C(=O)COc3ccc([N+](=O)[O-])cc3)c2C)no1	inconclusive: 13.1 µM [inhibitor, partial curve, poor fit]
COc1cccc(NC(=O)CC2C(=O)NC3CCCCC3N2C(=O)c2ccc(F)cc2)c1 (configuration not stated)	inconclusive: 10.4 µM [inhibitor, single point]
COc1ccc(C(C)(C)C)cc1NC(=O)c1cccc(S(=O)(=O)N2CCN(C(C)=O)CC2)c1	inconclusive: 9.28 µM [inhibitor, partial curve]
Cc1cc(C)c(C)c(S(=O)(=O)N2CCC(C(=O)NCC(c3ccccc3)N(C)C)CC2)c1C (configuration not stated)	inconclusive: 11.7 µM [inhibitor, single point]
CC(C)c1ccc(CNC(=O)C2CC(=O)N(C3CCCCC3)C2)cc1 (configuration not stated)	inactive
C=CCOc1ccc(/C=C/C(=O)OCC(=O)NC2CCCCCCC2)cc1	inconclusive: 10.4 µM [inhibitor, single point]
Cc1c(-c2cccc(Cl)c2)nc2ccccc2c1C(=O)N1CCC2(CC1)OCCO2	inconclusive: 9.28 µM [inhibitor, single point]
COc1ccc(NC(=O)Cn2c3ccccc3c3nc4n(c(=O)c32)CCS4)cc1OC	inconclusive: 10.4 µM [inhibitor, partial curve, poor fit]

Structure (SMILES)	Potency
C=CCOC(=O)C1=C(C)NC(=S)NC1/C=C/c1ccccc1 (configuration not stated)	inconclusive: 10.4 µM [inhibitor, partial curve]
Cc1cc(C)n2c(SCc3ccc(C#N)cc3)nnc2n1	inconclusive: 18.5 µM [inhibitor, single point]
c1cn2cc(CSC3CCCCC3)nc2s1	inactive
CS(=O)(=O)Nc1ccc(C2=NN(C(=O)c3ccco3)C(c3cccc(F)c3)C2)cc1 (configuration not stated)	active: 13.1 µM
Cc1oc2c(c1C(=O)NCc1cccnc1)C(=O)c1ccccc1C2=O	inconclusive: 0.37 µM [inhibitor, full curve, poor fit]
CC(C(=O)Nc1ccccc1F)N1CCN(S(=O)(=O)c2ccc(C(F)(F)F)cc2)CC1 (configuration not stated)	inconclusive: 18.5 µM [inhibitor, single point]
COc1ccc(OCCn2c(=N)n(CCO)c3ccccc32)cc1	inactive
COc1ccc(/C=C/C(=O)NC(=S)NNC(=O)c2ccco2)cc1OC	inconclusive: 18.5 µM [inhibitor, single point]
COc1ccc(C[C@H]2CN3C(=NC[C@@H]3Cc3ccc(O)cc3)N2C[C@H](C)NC(=O)c2ccc(C)c(Br)c2)cc1	active: 1.47 µM
CC(COc1cccc2ccccc12)CN1CCN(C)CC1 (configuration not stated)	inconclusive: 7.38 µM [inhibitor, partial curve, poor fit]
CC(C)CCCNc1nc(N2CCOCC2)nc(N2CCOCC2)n1	inconclusive: 13.1 µM [inhibitor, partial curve]
O=C1CS/C(=N\N=C\c2ccccc2Cl)N1CC1CC1	inactive
Cc1cccc(C(C)n2nnc3ccccc32)c1O (configuration not stated)	active: 14.7 µM
CCOc1ccc(S(=O)(=O)N(C)CC(=O)N2CCCC2)cc1	inactive
Cc1ccc(CC(=O)O/N=C(\N)c2ccccn2)cc1	inactive
COc1ccc(C)cc1S(=O)(=O)N1CCCCCC1	active: 2.08 µM
CC1CCN(C(c2ccccc2)c2nnnn2C(C)(C)C)CC1 (configuration not stated)	inconclusive: 11.7 µM [inhibitor, single point]
Cc1ccc(S(=O)(=O)NCC(c2ccccc2)N2CCN(c3ccc(F)cc3)CC2)cc1 (configuration not stated)	inconclusive: 16.5 µM [inhibitor, partial curve, poor fit]
FC(F)(F)c1nnc2c3ccccc3c(Cl)nn12	inconclusive: 18.5 µM [inhibitor, single point]
C[C@@H]1C[C@H]2[C@@H]3CCC4=CC(=O)C=C[C@]4(C)[C@@]3(F)[C@@H](O)C[C@]2(C)[C@H]1C(=O)CO	inconclusive: 19 µM [inhibitor, single point] and inconclusive: 18.5 µM [inhibitor, single point]
COc1cc(C(CC(=O)N2CCCC2)c2c(OC)cc(OC)c3ccc(=O)oc23)cc(OC)c1OC (configuration not stated)	active: 13.1 µM
COc1ccc(C(=O)N2CCN(S(=O)(=O)c3ccc(C)cc3)CC2)cc1S(=O)(=O)N1CCOCC1	inconclusive: 9.28 µM [inhibitor, partial curve]
COC(=O)Cn1cc(/C=C/c2cc[n+](C)cc2)c2ccccc21	inconclusive: 6.57 µM [inhibitor, partial curve]

Structure (SMILES)	Potency
O=C(c1ccc(F)cc1)N1CCC(C(=O)N(Cc2ccccc2)c2ccccc2)CC1	inconclusive: 11.7 µM [inhibitor, single point]
O=c1c2c(nc3c(-c4cccc(Br)c4)c[nH]n13)CCCC2	inconclusive: 4.15 µM [inhibitor, full curve]
CCOC(=O)C1C(=O)CC(C)(O)C(C(=O)OCC)C1c1cc(Br)ccc1OC (configuration not stated)	inconclusive: 9.28 µM [inhibitor, partial curve, poor fit]
Cc1cc(C)c2c(-n3cccc3)nn(C)c2n1	inconclusive: 18.5 µM [inhibitor, single point]
COc1cccc(OC)c1C(=O)NC(=S)Nc1ccc2c(c1)OCCO2	active: 4.15 µM
CCN(CC)c1ccc(C(=O)N/N=C(\C)c2ccc(OC)c(OC)c2)cc1	inactive
CCOC(=O)C1(Cc2ccccc2C)CCCN(S(C)(=O)=O)C1 (configuration not stated)	inconclusive: 0.147 µM [inhibitor, full curve, poor fit]
COc1cc(NS(=O)(=O)c2ccc(NC(=O)c3ccc([N+](=O)[O-])cc3)cc2)ncn1	inactive
Cc1ccc2nc(NCCc3ccc(Cl)cc3)c3nncn3c2c1	inconclusive: 9.28 µM [inhibitor, single point]
COc1ccc(C(=O)NCc2ccccc2OC)cc1	inconclusive: 18.5 µM [inhibitor, single point]
COc1ccc(C2=NOC3(CC(=O)N(c4ccc(C)cc4)C3=O)C2)c(OC)c1 (configuration not stated)	inactive
O=C(O)c1ccccc1C(=O)Nc1cccc([N+](=O)[O-])c1	inconclusive: 4.65 µM [inhibitor, single point]
CCC[C@H]1C[C@H](C(=O)N[C@@H]([C@H]2O[C@@H](SC)[C@@H](O)[C@@H](O)[C@@H]2O)[C@H](C)Cl)N(C)C1	active: 0.19 µM
NC(=O)C1CCCN(C(=O)c2ccc3c(c2)NC(=O)CS3)C1 (configuration not stated)	inconclusive: 18.5 µM [inhibitor, single point]
CCOc1ccccc1NC(=O)CSc1nnc(-c2ccccn2)n1Cc1ccco1	inconclusive: 18.5 µM [inhibitor, single point]
O=C(CN1CCC(NC(=O)c2ccccc2Cl)CC1)NCc1ccccc1	inconclusive: 2.33 µM [inhibitor, partial curve, poor fit]
Oc1ccc(Cl)cc1CNc1cccc2cccnc12	inconclusive: 14.7 µM [inhibitor, single point]
CC(=O)N1N=C(c2cccnc2)CC1c1ccccc1O (configuration not stated)	inactive
Cc1nc2ccccn2c1C(=O)NNS(=O)(=O)c1ccc(Cl)cc1	inconclusive: 16.5 µM [inhibitor, partial curve, poor fit]
O=C(c1cccc(S(=O)(=O)N2CCOCC2)c1)N(Cc1ccco1)Cc1cccs1	inconclusive: 18.5 µM [inhibitor, single point]
CCOc1cc(/C=C2/SC(=Nc3ccccc3)N(Cc3cccnc3)C2=O)ccc1OCC#N	inconclusive: 8.28 µM [inhibitor, partial curve]
